# Article PMC6212790
# The other results are listed elsewhere or left out. At the low end of the ranking, values are background and their order means little.
# Target: T1, GST-Rok (full length) (UniProt O34857)
# T1 sequence: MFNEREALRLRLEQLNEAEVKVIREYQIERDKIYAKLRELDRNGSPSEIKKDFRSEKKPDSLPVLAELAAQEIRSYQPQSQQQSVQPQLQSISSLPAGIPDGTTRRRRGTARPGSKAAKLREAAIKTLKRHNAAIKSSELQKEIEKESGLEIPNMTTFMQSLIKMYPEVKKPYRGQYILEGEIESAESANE
# Assay: protein binding microarray;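 note: rank score from −0.5 (least bound) to 0.5 (best bound)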
# Details: Rok is a gene silencer of Bacillus subtilis; high values mean tight binding; most listed sequences are background and not binding sites; double strand, one strand shown
row,Sequence,binding signal [E-score]
1,AAGTGTTC,0.00771
2,CTAGCAAA,0.164
3,ATATTTCG,0.221
4,GGTGCATA,0.155
5,AACACGGC,-0.0341
6,TAGCAAGA,0.0925
7,ACGACGCT,-0.158
8,AAGGTCCT,-0.271
9,CCGCCCCA,-0.353
10,GTCTATTA,0.11
11,CTGCATTA,0.29
12,AGAATTGA,0.193
13,ATGCGCAT,0.087
14,AGGAACTA,0.291
15,CGTTCAAA,-0.001
16,AGTATACA,0.271
17,AGACTGCC,-0.22
18,AGATAGCT,0.104
19,AAACTAAA,0.324
20,ACTAGCAT,0.182
21,CGCCTTGA,-0.225
22,ATGAAAAC,0.0417
23,GCAAGAAC,-0.0916
24,ATCGTAAA,0.169
25,ACTATTAG,0.244

row,Sequence,binding signal [E-score]
1,GTACGCAC,0.03
2,AAAGATAC,0.0513
3,CGTCATTA,-0.0222
4,CGGGCCTA,-0.309
5,GGAGGTAA,-0.0331
6,GCCCTGGA,-0.171
7,AAGATTGC,-0.137
8,CGACGCGC,-0.332
9,CGAGCTAA,0.0196
10,ATCAGCGC,-0.0134
11,CATTGTTC,0.00988
12,ACGTTTTG,0.158
13,ATCTACAT,0.372
14,GCTCACAA,-0.0316
15,GCCAACCA,-0.162
16,GGACAGCA,0.029
17,ATCACAAT,0.232
18,ACCTAGAT,0.269
19,AAGTTATA,0.289
20,TCAGGACA,-0.136
21,AAAGTATG,0.239
22,ATGCCATA,0.0639
23,TGGTCACA,-0.0402
24,GCACACCA,-0.025
25,AGGCGTCG,-0.139

row,Sequence,binding signal [E-score]
1,GCAAACAA,-0.152
2,AAGGAAAT,-0.0599
3,ACACAGAC,-0.123
4,CATACCGC,-0.0931
5,CAGGGAAA,-0.061
6,ATCAGGGA,-0.123
7,ATTATGGA,0.149
8,TCAAACAA,0.0792
9,GACTGCAA,-0.191
10,AGCCGGCT,-0.35
11,ACTTAGTG,0.138
12,CGCATTGA,-0.147
13,GGCTAGGA,-0.193
14,AGCTTGCA,0.0118
15,TAGGCTGA,-0.0568
16,AGTAGGAC,0.0729
17,TCAGGTAA,0.0671
18,AGTACCTC,-0.00964
19,ATAGTCTC,0.0365
20,CTATAAAC,0.272
21,GTCAGGGA,-0.289
22,GAGGTATC,0.000396
23,AGCTTGAA,0.081
24,ACTATAGA,0.174
25,CTTCGAAC,-0.166

row,Sequence,binding signal [E-score]
1,CCACCGGG,-0.454
2,AGCGAGAG,-0.154
3,AATCAGCG,-0.139
4,ACTTTTCC,-0.0636
5,GCTCGCAC,-0.218
6,AGTGACAA,0.0348
7,GTCGATCA,-0.188
8,GCCAGTGA,-0.255
9,CAAGGACG,-0.202
10,ACTGCCCT,-0.278
11,ACACTCTG,-0.0135
12,CCTTTTCC,-0.314
13,ACGGCGCG,-0.182
14,AGTCCGAC,0.0674
15,CGCCCGCG,-0.365
16,CAAGTCCA,-0.0486
17,CCTGCCAG,-0.24
18,CAAGGTAG,0.274
19,ACTAATAT,0.385
20,CTAACGTC,-0.0418
21,CCATTGTA,0.201
22,TCTACACA,0.242
23,GCGGCGAA,-0.13
24,TCCGAAGA,-0.00926
25,CAATCGCA,-4.39e-05

row,Sequence,binding signal [E-score]
1,AGCGACAC,0.0672
2,CAGACGTA,0.2
3,GCGATTCC,-0.0289
4,CCACCCCA,-0.347
5,AAAGCTGT,0.0902
6,AGTGGCTC,-0.0667
7,GGCAAACC,0.0188
8,AACGATGA,-0.054
9,ACGTTGAT,0.0705
10,TAGGGTAA,0.138
11,AAGCTGAG,-0.259
12,CCCTAGGC,-0.155
13,TAAAGCTA,0.259
14,AACACAGG,-0.118
15,ATACTAGA,0.349
16,GGCTAGAC,-0.121
17,ATACGTAG,0.196
18,CTGAGTGC,-0.098
19,GTCGAAAA,0.19
20,GCGGAAAC,0.0663
21,ATGGTTTC,0.0467
22,AGTGGCCC,-0.326
23,CCACCTGC,-0.311
24,CAATTTAC,0.288
25,TACATGAA,0.0836

row,Sequence,binding signal [E-score]
1,CGTTTTCA,-0.0478
2,TCCTAGAA,-0.0823
3,ACGATACT,0.174
4,ATACTCCC,-0.0284
5,GGAAATAC,0.101
6,TAGATATA,0.339
7,GCCGTCAC,-0.188
8,AAGCTTCG,-0.129
9,ACGGCGTG,-0.21
10,GAAGCGGA,-0.236
11,TACTCATA,0.192
12,CCGGCGAG,-0.215
13,CAATATAC,0.34
14,ACGGCTAA,-0.205
15,CTGGGCAC,-0.242
16,CGCACGGC,-0.169
17,CTCAACCC,-0.161
18,GCCCGCGC,-0.345
19,AATCTTCA,0.078
20,AAGATGAC,0.0776
21,GAACTTCA,0.0379
22,ATCACTCC,-0.0127
23,AAGAGAGC,-0.115
24,AACACGCT,0.092
25,CCCGTGAC,-0.289

row,Sequence,binding signal [E-score]
1,ACTGGTGC,0.00665
2,TACGCCTA,-0.0214
3,GGCATAAA,-0.00232
4,AGCAACCT,-0.121
5,TAGAAAAA,0.3
6,TAGGAACA,0.118
7,CTTTTAGC,0.0796
8,CCCTCACA,-0.265
9,CTATCGCC,-0.072
10,AGTTAGCG,0.064
11,AGTTAGTG,0.0885
12,AAAACCCT,-0.212
13,ATGGAATG,0.0653
14,AGACGGAG,-0.27
15,TAATGGAA,0.193
16,AGTGCCCA,-0.21
17,GGGACACC,-0.245
18,GGGAAGCA,-0.199
19,ATCGTATA,0.244
20,AAACTATG,0.195
21,CGCAGAAA,-0.119
22,AAATGCCC,-0.0117
23,CGTAAGCC,-0.198
24,AATTTCTG,0.158
25,CACTTCAA,-0.11

row,Sequence,binding signal [E-score]
1,CTTGTAGA,0.186
2,TACGGACA,0.0616
3,AAAAGTCT,0.00793
4,CCCCACGA,-0.304
5,CAATTCTA,0.278
6,AGAACATC,-0.0292
7,AGTTGGGC,0.0454
8,AATTGCGT,0.3
9,GAAGTCGA,0.0904
10,AACGTTAT,0.216
11,ATTCGTCG,0.21
12,CGGGCTTA,-0.258
13,AGCACGTG,0.0178
14,ATCGCCTA,-0.165
15,ATCATCAA,-0.11
16,AACAAATG,0.0365
17,GACGTCTC,-0.121
18,GCTGGCTA,-0.129
19,ATTCTGAG,0.0932
20,GGCATCCC,-0.344
21,CCTAATCG,-0.00644
22,ACCTCTTC,-0.21
23,CCTCAGAA,-0.0228
24,ACAAGGAC,-0.0597
25,ACTTGAAA,0.0856

row,Sequence,binding signal [E-score]
1,GAAGTCAC,-0.0246
2,CGTATTGA,0.15
3,GGGGGGCA,-0.399
4,AAATCTGT,0.214
5,GGACGTCC,-0.183
6,ACCGGTAC,0.00493
7,CTAGGGCA,-0.14
8,TCCCACGA,-0.153
9,ATAGCGTG,-0.0395
10,TGATTCAA,-0.164
11,ACTCACCA,0.0407
12,GAGGCTCC,-0.339
13,AAGCGTGG,-0.109
14,TAATATTA,0.304
15,ATTAATGA,0.18
16,TCACTCCA,-0.0035
17,GTTTCTGA,0.161
18,CTGGCAAC,-0.152
19,GTCGCTAA,0.16
20,TACAGAAA,0.177
21,CCTCACCA,-0.137
22,AGTGACTA,0.145
23,AAAAAGTG,-0.135
24,AACCCACA,0.0127
25,ACCCCCGA,-0.452

row,Sequence,binding signal [E-score]
1,GATGCACA,0.0111
2,GCACTACA,-0.0483
3,AATGCGTC,0.0567
4,CAAGTGTA,0.163
5,TGGTGGAA,-0.0913
6,AACTTAAC,0.178
7,ACGTAGTG,0.0335
8,CTTCCTAA,-0.00177
9,AATCATGG,-0.0415
10,GACAGCCA,0.0747
11,AGCAGTCA,0.0758
12,AGTTTACG,0.182
13,GGCCGGAA,-0.178
14,ACTCTTTG,0.0631
15,GGTGCAAC,-0.11
16,CCAATGAA,-0.228
17,CTCAAATC,0.0994
18,CCCCAACC,-0.378
19,AAGTGGCT,0.0139
20,AGGTCAGC,-0.133
21,CCCGCTGA,-0.0983
22,AGTCAACT,0.127
23,AACTGTCT,-0.0746
24,ATGAAGGC,-0.181
25,AAGAGTAC,0.148

row,Sequence,binding signal [E-score]
1,ACCCGAGG,-0.208
2,CCTCGCAA,0.00653
3,GCTCGGAC,-0.286
4,CTGCAATA,0.13
5,GATTAATA,0.315
6,ACGTTGGG,-0.04
7,ATGATAAG,0.108
8,GCAAGTTA,0.261
9,AACAATGC,0.00799
10,AAGATTCT,0.175
11,ACAGGAGA,-0.184
12,ACGTTATC,0.179
13,AAAGCACG,-0.137
14,ACATAGGT,0.0815
15,CTGCAAGA,-0.231
16,GCATTCTA,0.227
17,CCGACAGG,-0.267
18,CAGTCATA,0.0664
19,CGTGTTCC,-0.208
20,CACCCGCA,-0.165
21,ATTAAATC,0.0773
22,GCTACTAA,0.199
23,AAAGAGTC,-0.095
24,CAATCGTA,0.113
25,CCCACCCG,-0.284

row,Sequence,binding signal [E-score]
1,ATTGAAGC,0.0102
2,ACATGGCC,-0.0777
3,CCGGCACC,-0.332
4,GACAACTA,0.333
5,CCAGTAGA,0.166
6,CCCTGCCC,-0.447
7,AACTGCTG,-0.0396
8,TCTATCAA,0.212
9,AGTGCTGA,-0.24
10,CCAATGGC,-0.174
11,AGAACGAG,-0.16
12,CGCTGTTA,-0.0621
13,GGCTTTGA,-0.332
14,ATCTATCA,0.409
15,AGCTAGGC,-0.143
16,ATCCTCTG,0.0742
17,AGAACCCG,-0.253
18,CGCTAGAG,-0.0128
19,CAGCTTCA,-0.268
20,CCGCGCTA,-0.00372
21,AAAACTGG,0.00884
22,AAGCAGGC,-0.339
23,GAGATACA,0.193
24,AACCAGTG,-0.018
25,GATCATGC,-0.11

row,Sequence,binding signal [E-score]
1,ACCCTGGG,-0.232
2,AATAGTCG,0.0668
3,AATACATC,0.209
4,GCCGATCA,0.0608
5,CTATGACC,-0.105
6,CCTGGGAA,-0.171
7,AGCAGATG,0.252
8,CACTGTAC,0.0796
9,ACAAGACT,-0.0271
10,AGGCCAGC,-0.341
11,CAGGCCTC,-0.288
12,CAAACCAG,-0.185
13,CCTTACTC,-0.231
14,ATAAACAG,0.177
15,CGAAAGCA,-0.153
16,TAGTTGCA,0.318
17,AGCAGCGG,-0.175
18,GTTCCCGA,-0.27
19,GGTCCACA,-0.132
20,AAGGGTCC,-0.12
21,ACGCTTAA,-0.0688
22,CAGCCGCG,-0.283
23,CTGACACA,-0.0347
24,ATTCGAGA,0.15
25,AGATCCAG,-0.052

row,Sequence,binding signal [E-score]
1,CACTGACA,-0.161
2,AACCGTAA,0.0898
3,GATAGTTA,0.391
4,ACTAGTGA,0.172
5,CTTACAAC,0.14
6,CCGGTTTC,-0.0901
7,CTATGCGC,-0.124
8,CTCGAACA,0.101
9,CATCAGAG,-0.0709
10,CGCATAAA,0.0624
11,GAGTAATA,0.318
12,ACGTTTAA,-0.112
13,ATCTTGAA,0.0196
14,ACTCAATA,0.309
15,TCTACTAA,0.353
16,TCTAGCAA,0.184
17,ATTGTAGA,0.316
18,ACTGTCAC,0.011
19,CCAATAGG,-0.237
